Data on 44 compounds can be found in article PMC4336329 (PLoS ONE, 2015).

SMILES strings stand for the structures. Among all 310,000 compounds or so, about 2,200 (0.71%) showed an effect of 50% or more. Effects have a minus sign here. Some of the results follow.

The target of the experiment is human ether-à-go-go-related gene (hERG) potassium channel (human, UniProt Q12809). In words: primary screen, population patch clamp on CHO cells stably expressing hERG.
human ether-à-go-go-related gene (hERG) potassium channel, sequence (Q12809 whole entry, looked up): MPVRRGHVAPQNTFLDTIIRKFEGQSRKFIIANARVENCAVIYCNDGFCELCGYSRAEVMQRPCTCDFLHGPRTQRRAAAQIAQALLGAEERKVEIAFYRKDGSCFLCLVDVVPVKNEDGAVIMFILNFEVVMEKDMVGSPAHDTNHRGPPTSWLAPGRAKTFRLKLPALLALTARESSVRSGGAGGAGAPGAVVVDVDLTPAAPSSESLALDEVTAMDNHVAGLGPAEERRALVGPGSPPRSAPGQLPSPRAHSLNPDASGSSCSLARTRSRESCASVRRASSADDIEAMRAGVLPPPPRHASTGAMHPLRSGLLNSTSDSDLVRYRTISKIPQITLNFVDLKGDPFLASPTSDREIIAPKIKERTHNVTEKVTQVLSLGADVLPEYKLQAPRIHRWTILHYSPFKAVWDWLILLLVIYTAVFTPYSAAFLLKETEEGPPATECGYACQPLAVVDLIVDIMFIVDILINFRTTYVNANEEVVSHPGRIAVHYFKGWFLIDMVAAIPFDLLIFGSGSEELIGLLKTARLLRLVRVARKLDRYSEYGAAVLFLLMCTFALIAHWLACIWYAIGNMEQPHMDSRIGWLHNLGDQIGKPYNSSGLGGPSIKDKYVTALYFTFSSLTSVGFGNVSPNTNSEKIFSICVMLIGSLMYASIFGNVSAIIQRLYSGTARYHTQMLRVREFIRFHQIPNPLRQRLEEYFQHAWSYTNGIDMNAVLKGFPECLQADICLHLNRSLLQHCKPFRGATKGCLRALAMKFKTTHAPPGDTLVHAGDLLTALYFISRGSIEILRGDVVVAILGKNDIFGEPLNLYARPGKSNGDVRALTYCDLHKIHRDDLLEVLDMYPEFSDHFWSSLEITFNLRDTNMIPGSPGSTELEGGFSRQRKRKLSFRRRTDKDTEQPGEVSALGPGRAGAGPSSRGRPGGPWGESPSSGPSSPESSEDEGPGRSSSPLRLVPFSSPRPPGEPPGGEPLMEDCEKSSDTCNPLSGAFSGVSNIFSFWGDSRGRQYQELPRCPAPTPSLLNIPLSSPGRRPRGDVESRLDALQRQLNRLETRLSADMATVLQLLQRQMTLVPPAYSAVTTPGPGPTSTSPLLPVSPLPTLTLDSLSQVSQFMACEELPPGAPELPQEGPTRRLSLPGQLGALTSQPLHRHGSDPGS
In the case of `O=C(CCSc1nc2ccccc2s1)N/N=C/c1c(O)ccc2ccccc12`, the “hERG current change (%, negative = inhibition) at 1uM” value came out at 9.91%.

In the case of `NC(=O)C1CCCN(CC(=O)Nc2cc(S(=O)(=O)N3CCOCC3)ccc2N2CCCC2)C1` (centres unmarked), the “hERG current change (%, negative = inhibition) at 1uM” value was -0.144%.

Take `CCOC(=O)c1cnc(-n2nc(C)cc2C)nc1NNc1cc(-c2ccccc2)nc(C)n1`: the “hERG current change (%, negative = inhibition) at 1uM” value turned out to be 17.4%.

For `CCN(C(=O)CN1C(=O)S/C(=C\c2ccc(F)cc2)C1=O)C1CCS(=O)(=O)C1` (centres unmarked), the “hERG current change (%, negative = inhibition) at 1uM” value amounted to 13%.

In the case of `Cc1c(C(=O)O)sc2nc(-c3cccs3)cc(C(F)(F)F)c12`, the “hERG current change (%, negative = inhibition) at 1uM” value turned out to be 17.3%.

With `CCCn1c(SCC(=O)Nc2ccccc2Oc2ccccc2)n[nH]c1=O`, the “hERG current change (%, negative = inhibition) at 1uM” value is 3.49%.

Regarding `CC(=O)N1CCC2(CC1)NC(=O)N(c1ccccc1)N2`, the “hERG current change (%, negative = inhibition) at 1uM” value was 9.53%.

For `CCN(Cc1ccncc1)Cc1nc(-c2ccc(C(=O)OC)cc2)no1`, the “hERG current change (%, negative = inhibition) at 1uM” value was -0.646%.

Consider `O=C(COC(=O)c1ccccc1)NCC1CCCO1` (centres unmarked), for which the “hERG current change (%, negative = inhibition) at 1uM” value is -1.28%.

For `Cc1cc(C)c(S(=O)(=O)N2CCN(C(=O)N3CCCCC3)CC2)c(C)c1`, the “hERG current change (%, negative = inhibition) at 1uM” value is on record as 4.89%.

For `CCOC(=O)Cc1csc(NC(=O)Cc2ccc(C)cc2)n1`, the “hERG current change (%, negative = inhibition) at 1uM” value worked out at 5.76%.

Consider `Cc1ccc(S(=O)(=O)Oc2ccccc2/C=N/NC(=O)c2nn(C)cc2[N+](=O)[O-])cc1`, for which the “hERG current change (%, negative = inhibition) at 1uM” value is given as 10.2%.

Consider `Cc1c(NC(=O)c2cccs2)c(=O)n(-c2ccccc2)n1C`, for which the “hERG current change (%, negative = inhibition) at 1uM” value turned out to be 12.9%.

As to `O=S(=O)(/C=C/c1ccccc1)NC1CCCCCC1`, the “hERG current change (%, negative = inhibition) at 1uM” value is 14.5%.

Take `COc1ccc(C2=NOC(C(=O)Nc3ccc4c(c3)OCO4)C2)cc1` (centres unmarked): the “hERG current change (%, negative = inhibition) at 1uM” value worked out at 13%.

`COc1ccc(C(=O)NCc2nnc(SCC(=O)N3CCC(C)CC3)o2)cc1`: the “hERG current change (%, negative = inhibition) at 1uM” value worked out at 8.68%.

Regarding `CN(C)Cc1c(C(=O)N/N=C/c2ccncc2)nnn1-c1nonc1N`, the “hERG current change (%, negative = inhibition) at 1uM” value is 10.9%.

For the compound `COC(=O)C1=C(O)/C(=C\c2cc(C)n(-c3ccccc3F)c2C)N=C1C`, the “hERG current change (%, negative = inhibition) at 1uM” value was determined as 15%.

Regarding `COc1ccc(Cc2nc(-c3ccccc3)no2)cc1`, the “hERG current change (%, negative = inhibition) at 1uM” value was determined as 11.8%.

For `Cc1cc(Br)ccc1NC(=O)CNC(=O)CSc1n[nH]c(N)n1`, the “hERG current change (%, negative = inhibition) at 1uM” value is 12.3%.

`COc1ccc(-n2c(C)nc3sc4c(c3c2=O)CCCC4)cc1`: the “hERG current change (%, negative = inhibition) at 1uM” value is 11.7%.

Regarding `COc1ccc(CNC(=O)CN(C)Cc2ccc(SC)cc2)cc1`, the “hERG current change (%, negative = inhibition) at 1uM” value is on record as -31.2%.

Turning to `CCCNC(=S)Nc1ccccc1`, the “hERG current change (%, negative = inhibition) at 1uM” value is reported as 16.2%.

On to `O=C(O)Cc1sc(NCc2ccco2)nc1-c1ccccc1`, for which the “hERG current change (%, negative = inhibition) at 1uM” value is -7.64%.

Regarding `Cc1cc(NC(=O)c2ccco2)c(=O)n(Cc2c(F)cccc2Cl)c1`, the “hERG current change (%, negative = inhibition) at 1uM” value is 8.57%.

On to `Cc1ccc(OCC(=O)N(Cc2ccccc2)c2c(N)n(Cc3ccccc3)c(=O)[nH]c2=O)c(C)c1`, for which the “hERG current change (%, negative = inhibition) at 1uM” value stood at 12%.

Regarding `CCOC(=O)Cn1cnc2c(nnn2-c2ccc(F)cc2)c1=O`, the “hERG current change (%, negative = inhibition) at 1uM” value was 8.58%.

On to `CCOC(=O)c1oc2ccccc2c1NC(=O)CN1CCN(C)CC1`, for which the “hERG current change (%, negative = inhibition) at 1uM” value is -31.4%.

With `COc1cc(-c2cn(S(=O)(=O)c3cccc4nsnc34)nc2N)cc(OC)c1OC`, the “hERG current change (%, negative = inhibition) at 1uM” value is given as -1.03%.

With `CSc1nnc2n(Cc3ccccc3)c(=O)c3c4c(sc3n12)COC(C(C)C)C4` (centres unmarked), the “hERG current change (%, negative = inhibition) at 1uM” value stood at 3.43%.

Take `C(=N\NC1=Nc2cccc3cccc1c23)/c1ccccc1`: the “hERG current change (%, negative = inhibition) at 1uM” value was 15.2%.

Regarding `CCn1c2ccccc2c2nnc(SCCCn3c(=O)[nH]c4ccccc43)nc21`, the “hERG current change (%, negative = inhibition) at 1uM” value came to 5.08%.

Turning to `CC(C)NC(=O)COC(=O)c1ccc(NS(=O)(=O)c2ccc3c(c2)OCCO3)cc1`, the “hERG current change (%, negative = inhibition) at 1uM” value is listed as 12.2%.

Regarding `CCOc1ccc(NC(=O)COC(=O)CNC(=O)c2ccc(-c3ccccc3)cc2)cc1`, the “hERG current change (%, negative = inhibition) at 1uM” value is 6.44%.

Consider `Cc1cc(C(=O)Nc2ccc(Cl)c(S(=O)(=O)N3CCOCC3)c2)c2ccccc2n1`, for which the “hERG current change (%, negative = inhibition) at 1uM” value was 9.36%.

Regarding `COc1ccc(S(=O)(=O)N2CCCC(C(=O)NCc3ccc(F)cc3)C2)cc1` (centres unmarked), the “hERG current change (%, negative = inhibition) at 1uM” value was 11.6%.

On to `CC1CCN(S(=O)(=O)c2ccc(C(=O)Nc3nnc(-c4ccncc4)o3)cc2)CC1`, for which the “hERG current change (%, negative = inhibition) at 1uM” value was found to be 7.8%.

For the compound `CCNC(=O)/C=C1\NC(C)(C)Cc2c1ccc1ccccc21`, the “hERG current change (%, negative = inhibition) at 1uM” value is reported as 12.3%.

Turning to `O=C(Nc1ccccc1)N(Cc1ccc(Cl)cc1)CC(O)C(F)(F)F` (centres unmarked), the “hERG current change (%, negative = inhibition) at 1uM” value was determined as 9.35%.

Turning to `O=[N+]([O-])c1ccc(Nc2nc(NC3CCCCC3)nc(N3CCCC3)n2)cc1`, the “hERG current change (%, negative = inhibition) at 1uM” value stood at 11.6%.

For the compound `CN1CC[C@@]2(C)c3cc(O)ccc3N(C)C2O1` (some centres unmarked), the “hERG current change (%, negative = inhibition) at 1uM” value turned out to be 4.17%.

As to `Fc1ccc(Cn2nnnc2C(c2cccs2)N2CCN(C3CCCCC3)CC2)cc1` (centres unmarked), the “hERG current change (%, negative = inhibition) at 1uM” value is -51.6%.

Turning to `O=C(CSc1nncc(=O)[nH]1)Nc1cccc([N+](=O)[O-])c1`, the “hERG current change (%, negative = inhibition) at 1uM” value is recorded as 0.998%.

As for `COc1cc(/C=N/n2c(C3CCCCC3)n[nH]c2=S)cc(OC)c1O`, the “hERG current change (%, negative = inhibition) at 1uM” value was determined as 19.3%.
